Experimental data: PubChem BioAssay (NCI)
Where “and” joins values, the source holds several entries; their conditions need not be identical. Identical values can stand only once.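 48-hour exposure; five concentrations; linearly interpolated endpoints. Abbreviation: GI50, concentration required for 50% inhibition of growth. At the TGI there is no net growth.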

test system: NCI-H322M lung; experiment: NCI tumour cell line growth inhibition, 48 h

Row | Structure (SMILES) | TGI | GI50 [µM]
1 | COc1nc2cccc(C(O)c3ccccc3)c2nc1-c1ccccc1 (centres undefined) | > 100 µM | –
2 | N#CC1(C#N)NC(c2ccccc2)C(C#N)(C#N)NC1c1ccccc1 (centres undefined) | > 100 µM | –
3 | COC(=O)c1ccc2c(c1)C(=O)c1c-2n(CCCCl)c(=O)c2cc([N+](=O)[O-])ccc12 | > 100 µM | > 100
4 | COC1C(O)CC(OC2CC(OC3CC(O[C@@H]4C(=O)c5c(cc6cc(OC7CC(OC8CC(O)C(O)C(C)O8)C(O)C(C)O7)c(C)c(O)c6c5O)CC4[C@H](OC)C(=O)O)OC(C)C3O)OC(C)C2O)OC1C (some centres undefined) | > 33.3 µM | 2.59
5 | CC1CCN(Cc2ccc(NC(=O)c3cc4ccc5cccnc5c4[nH]3)cc2)CC1 | 21.8 µM | 7.15
6 | CC(CC(N)C(=O)O)C(=O)O (centres undefined) | > 100 µM | –
7 | CN1CN(C2OC(CO)C(O)C2O)c2nc(N)[nH]c(=O)c21 (centres undefined) | > 100 µM | –
8 | CCOC(=O)C(NC(=O)c1ccccc1)(Nc1ccc(S(=O)(=O)Nc2ncccn2)cc1)C(F)(F)F (centres undefined) | > 100 µM | –
9 | CC(CC(=O)N1C(=O)C(C)(C)[C@@H](O)[C@H]1CC(C)C(Cl)(Cl)Cl)C(Cl)(Cl)Cl (some centres undefined) | > 100 µM | –
10 | N#CC(/C(CCC(=O)Nc1ccc(Cl)cc1)=N/NC(=O)c1cc2ccccc2cc1O)c1ccccc1 (centres undefined) | > 100 µM | –
11 | O=C1C(=O)N(c2ccc(Cl)cc2)C(=O)C(=O)C1c1nc2ccccc2o1 | > 100 µM | –
12 | NCCc1ccc(S(=O)(=O)F)cc1 | > 100 µM | > 100
13 | S=C(N/N=C(\c1ccccc1)c1ccccn1)NC1CCCCC1 | > 100 µM | –
14 | CC(=O)OC1CCC2(C)C(CCC3C2CC(=O)C2(C)C3CC(N3CC3)C2C(C)=O)C1 (centres undefined) | 52.5 µM | –
15 | O=C(Nc1ccc(Cl)cc1C(F)(F)F)C(=O)C1CCCS1(=O)=O (centres undefined) | > 100 µM | –
16 | COc1cc(C2C3=C(COC3=O)Oc3cc4c(cc32)OCO4)ccc1O (centres undefined) | > 100 µM | –
17 | CN(C)CCCN(CCC1CCCCC1)CCC1CCCCC1 | 17.2 µM | 4.55
18 | c1ccc(-c2nc3ccccc3nc2SCc2cccnc2)cc1 | > 100 µM | –
19 | Cc1n[nH]c(=S)n(C)c1=S | > 100 µM | –
20 | O=c1oc2ccc(I)cc2c(=O)n1-c1ccc(F)cc1F | 17.3 µM | 2.76
21 | O=C1CSC(=S)N1c1ccco1 | > 100 µM | –
22 | CCCCCOCC(O)CO (centres undefined) | > 100 µM | –
23 | COc1cc(-c2nccc3cc(OC)c(OC)cc23)ccc1O | > 100 µM | –
24 | CCCCCCCCCCCCOP(=O)(O)OP(=O)(O)OCC1OC(n2ccc(N)nc2=O)CC1O (centres undefined) | > 100 µM | –
25 | Cc1ccc2oc(=O)cc(/C(=C3/C=CC=N3)c3ccc[nH]3)c2c1 | 6 µM | 0.423

Row | Structure (SMILES) | TGI | GI50 [µM]
26 | Cc1ccc(-c2nc3ccccc3c(=O)n2NCC2(O)OCC(O)C(O)C2O)cc1 (centres undefined) | > 100 µM | –
27 | O=C/C1=C/C2=Cc3ccccc3C=C(/C=C(/C=O)C1)C2 | > 100 µM | –
28 | O=C(O)[C@H](Cc1c[nH]c2ccccc12)N1C(=O)c2ccccc2C1=O | > 100 µM | –
29 | CCCCCCCCCCCCCCCC1=NCCN1 | 7.04 µM | 2.38
30 | CC(=O)Nc1ccc2nc(-c3ccccn3)c(-c3ccccn3)nc2c1 | > 100 µM | –
31 | S=C1NC2=C(COc3ccccc32)C(c2ccc(Cl)cc2)N1 (centres undefined) | 30.3 µM | –
32 | CCOC(=O)c1nc2ccc(C(F)(F)F)cc2nc1Nc1cc(OC)c(OC)c(OC)c1 | > 100 µM | –
33 | NS(=O)(=O)c1nnc(NC(=O)C23CC4CC(CC(C4)C2)C3)s1 | > 100 µM | –
34 | C=CCNC(=S)N1CC(C)C(=O)Nc2cc(Cl)ccc21 (centres undefined) | > 100 µM | –
35 | NC(=NCc1ccccc1)C(N=Nc1ccccc1)C(=O)NCc1ccccc1 (centres undefined) | 32.5 µM | 7.97
36 | N/N=C1\C(=O)N(Cc2ccccc2)C(=O)C1C(=O)NCc1ccccc1 (centres undefined) | > 100 µM | –
37 | CSCS(=O)C[C@H](CO)NC(=O)/C=C/c1c(C)[nH]c(=O)[nH]c1=O (some centres undefined) | 4.28 µM and 3.95 µM | 0.803
38 | O=S(=O)(CCN1CCOCC1)Nc1cc(-c2ccc3ncnc(Nc4ccc(F)c(Cl)c4)c3c2)cnc1Cl | 2.03 µM | 0.219
39 | N#Cc1c(NCc2ccccc2)nc(NCc2ccccc2)c(C#N)c1-c1ccc(O)cc1 | > 100 µM | 32.3
40 | COc1ccccc1Cc1ccc(C2C=CC3(CC(=O)C=C3C)C(=O)C2)o1 (centres undefined) | > 100 µM | –
41 | COC(=O)/C=C\C(C#N)(C#N)N=Cc1cccc(OC)c1 | 35.3 µM | –
42 | COC(=O)c1ccccc1N(C(=O)c1ccccc1)c1ccccc1C | > 100 µM | –
43 | O=C1C(Cl)=C(Nc2ccc(Nc3ccccc3)c(NC3=C(Cl)C(=O)c4ccccc4C3=O)c2)C(=O)c2ccccc21 | 21.4 µM | 3.07
44 | COc1cc2c(c(OC)c1OC)-c1ccc(O)cc1[C@@H](NC(C)=O)CC2 | > 100 µM | 0.0683
45 | CC1=CC(C)=NN=C(N)N1S(=O)(=O)c1cc(C)c(Cl)cc1SCc1ccccc1 | > 100 µM | > 100
46 | COc1cc(OC)c(C(=O)c2cccs2)cc1N | > 100 µM | –
47 | O=C(Cc1ccccc1F)NC1=C(Cl)C(=O)c2ccccc2C1=O | 47.9 µM | –
48 | Cc1[nH]c(=O)[nH]c(=O)c1/C=C/C(=O)O (tested in a mixture with another compound) | > 625 µM | –
49 | CC1(C)[C@@H]2CC[C@]1(C)[C@H](OC(=O)/C=C/c1ccccc1)C2 | 44.2 µM | –
